# This is one part of the list.
# Key:
# Experiment in all cases: glycan array binding signal (z-score within array); higher = stronger binding
# Settings in all cases: glycan notation: IUPAC condensed, linker removed
# [1] = biological target: GalNAc(b1-4)GlcNAc(b1-2)Man
# How it was run: (§1)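 Glycan array data came from 3228 arrays in the Consortium for Functional Glycomics database, and only arrays with an available protein sequence were kept. Glycan names were put into IUPAC-condensed notation, and columns mapping to the same glycan were averaged. The binding signal is a within-array Z-score, averaged across arrays of one protein sequence run at different concentrations or buffers and across linkers. A negative Z-score can be read as non-binding.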
# [2] = biological target: GalNAc(b1-4)GlcNAc(b1-2)Man(a1-3)[GalNAc(b1-4)GlcNAc(b1-2)Man(a1-6)]Man(b1-4)GlcNAc(b1-4)GlcNAc
# How it was run: as §1
# [3] = biological target: GalNAc(b1-4)GlcNAc(b1-3)GalNAc(b1-4)GlcNAc
# How it was run: as §1
# GalNAc(b1-4)GlcNAc6S = biological target: GalNAc(b1-4)GlcNAc6S
# How it was run: as §1
# GalNAc(b1-6)GalNAc = biological target: GalNAc(b1-6)GalNAc
# How it was run: as §1
# GalNAc3S(b1-4)GlcNAc = biological target: GalNAc3S(b1-4)GlcNAc
# How it was run: as §1
# GalNAc3S(b1-4)GlcNAc3S = biological target: GalNAc3S(b1-4)GlcNAc3S
# How it was run: as §1
# [4] = biological target: GalNAc3S(b1-4)[Fuc(a1-3)]GlcNAc
# How it was run: as §1
# GalNAc4S6S(b1-4)GlcNAc = biological target: GalNAc4S6S(b1-4)GlcNAc
# How it was run: as §1
# GalNAc6S(b1-4)GlcNAc = biological target: GalNAc6S(b1-4)GlcNAc
# How it was run: as §1
# Glc(a1-4)Glc = biological target: Glc(a1-4)Glc
# How it was run: as §1
# [5] = biological target: Glc(a1-4)Glc(a1-4)Glc(a1-4)Glc
# How it was run: as §1
# Glc(a1-6)Glc(a1-6)Glc = biological target: Glc(a1-6)Glc(a1-6)Glc
# How it was run: as §1
# [6] = biological target: Glc(a1-6)Glc(a1-6)Glc(a1-6)Glc
# How it was run: as §1
# Glc(b1-4)Glc = biological target: Glc(b1-4)Glc
# How it was run: as §1
# Glc(b1-6)Glc = biological target: Glc(b1-6)Glc
# How it was run: as §1
# GlcA(b1-3)Gal = biological target: GlcA(b1-3)Gal
# How it was run: as §1
# GlcA(b1-3)GlcNAc = biological target: GlcA(b1-3)GlcNAc
# How it was run: as §1
# GlcA(b1-6)Gal = biological target: GlcA(b1-6)Gal
# How it was run: as §1
# [7] = biological target: GlcA3S(b1-3)Gal(b1-4)GlcNAc(b1-2)Man
# How it was run: as §1
# [8] = biological target: GlcA3S(b1-3)Gal(b1-4)GlcNAc(b1-3)Gal(b1-4)Glc
# How it was run: as §1
# [9] = biological target: GlcNAc(a1-3)Gal(b1-4)GlcNAc
# How it was run: as §1
# [10] = biological target: GlcNAc(a1-4)Gal(b1-3)GlcNAc
# How it was run: as §1
# [11] = biological target: GlcNAc(a1-4)Gal(b1-4)GalNAc
# How it was run: as §1
# [12] = biological target: GlcNAc(a1-4)Gal(b1-4)GlcNAc
# How it was run: as §1
# [13] = biological target: GlcNAc(a1-4)Gal(b1-4)GlcNAc(b1-3)Gal(b1-4)Glc
# How it was run: as §1
# [14] = biological target: GlcNAc(a1-4)Gal(b1-4)GlcNAc(b1-3)Gal(b1-4)GlcNAc
# How it was run: as §1
# [15] = biological target: GlcNAc(a1-4)Gal(b1-4)GlcNAc(b1-3)Gal(b1-4)GlcNAc(b1-3)Gal(b1-4)GlcNAc
# How it was run: as §1
# [16] = biological target: GlcNAc(a1-4)Gal(b1-4)GlcNAc(b1-3)Gal(b1-4)[Fuc(a1-3)]GlcNAc(b1-3)Gal(b1-4)[Fuc(a1-3)]GlcNAc
# How it was run: as §1
# [17] = biological target: GlcNAc(a1-6)Gal(b1-4)GlcNAc
# How it was run: as §1
# [18] = biological target: GlcNAc(b1-2)Gal(b1-3)GalNAc
# How it was run: as §1
# [19] = biological target: GlcNAc(b1-2)Man(a1-3)[GlcNAc(b1-2)Man(a1-6)]Man(b1-4)GlcNAc(b1-4)GlcNAc
# How it was run: as §1
# [20] = biological target: GlcNAc(b1-2)Man(a1-3)[GlcNAc(b1-2)Man(a1-6)]Man(b1-4)GlcNAc(b1-4)[Fuc(a1-6)]GlcNAc
# How it was run: as §1
# [21] = biological target: GlcNAc(b1-2)Man(a1-3)[GlcNAc(b1-4)][GlcNAc(b1-2)Man(a1-6)]Man(b1-4)GlcNAc(b1-4)GlcNAc
# How it was run: as §1
# [22] = biological target: GlcNAc(b1-2)Man(a1-3)[GlcNAc(b1-4)][GlcNAc(b1-2)Man(a1-6)]Man(b1-4)GlcNAc(b1-4)[Fuc(a1-6)]GlcNAc
# How it was run: as §1
# [23] = biological target: GlcNAc(b1-2)[GlcNAc(b1-4)]Man(a1-3)[GlcNAc(b1-2)Man(a1-6)]Man(b1-4)GlcNAc(b1-4)GlcNAc
# How it was run: as §1
# [24] = biological target: GlcNAc(b1-2)[GlcNAc(b1-4)]Man(a1-3)[GlcNAc(b1-4)][GlcNAc(b1-2)Man(a1-6)]Man(b1-4)GlcNAc(b1-4)GlcNAc
# How it was run: as §1
# [25] = biological target: GlcNAc(b1-2)[GlcNAc(b1-4)]Man(a1-3)[GlcNAc(b1-4)][GlcNAc(b1-2)[GlcNAc(b1-6)]Man(a1-6)]Man(b1-4)GlcNAc(b1-4)GlcNAc
# How it was run: as §1
# [26] = biological target: GlcNAc(b1-2)[GlcNAc(b1-4)]Man(a1-3)[GlcNAc(b1-4)][GlcNAc(b1-2)[GlcNAc(b1-6)]Man(a1-6)]Man(b1-4)GlcNAc(b1-4)[Fuc(a1-6)]GlcNAc
# How it was run: as §1
# [27] = biological target: GlcNAc(b1-2)[GlcNAc(b1-6)]Man(a1-6)[GlcNAc(b1-2)Man(a1-3)]Man(b1-4)GlcNAc(b1-4)GlcNAc
# How it was run: as §1
# [28] = biological target: GlcNAc(b1-2)[GlcNAc(b1-6)]Man(a1-6)[GlcNAc(b1-2)Man(a1-3)]Man(b1-4)GlcNAc(b1-4)[Fuc(a1-6)]GlcNAc
# How it was run: as §1
# [29] = biological target: GlcNAc(b1-2)[GlcNAc(b1-6)]Man(a1-6)[GlcNAc(b1-4)][GlcNAc(b1-2)Man(a1-3)]Man(b1-4)GlcNAc(b1-4)GlcNAc
# How it was run: as §1
# GlcNAc(b1-3)Fuc = biological target: GlcNAc(b1-3)Fuc
# How it was run: as §1
# GlcNAc(b1-3)Gal = biological target: GlcNAc(b1-3)Gal
# How it was run: as §1
# [30] = biological target: GlcNAc(b1-3)Gal(b1-3)GalNAc
# How it was run: as §1
binder,measurement,setting,value
"AAL (Agrocybe aegerita), Q6WY08 (protein) MQGVNIYNISAGTSVDLAAPVTTGDIVTFFSSALNLNAGAGNPNNTTLNLFAENGAYLLHIAFRLQENVIIFNSRQPDGPWLVEQRVSDVANQFAGIDGKAMVTVFDHGDKYQVVINEKTVIQYTKQISGLTLSLSYNATEETSIFSTVVEAVTYTGLALEHHHHHH",glycan array binding signal (z-score),[1],-0.16
same,glycan array binding signal (z-score),[2],-0.149
same,glycan array binding signal (z-score),[3],-0.134
same,glycan array binding signal (z-score),GalNAc(b1-4)GlcNAc6S,-0.141
same,glycan array binding signal (z-score),GalNAc(b1-6)GalNAc,-0.149
same,glycan array binding signal (z-score),GalNAc3S(b1-4)GlcNAc,-0.128
same,glycan array binding signal (z-score),GalNAc3S(b1-4)GlcNAc3S,-0.132
same,glycan array binding signal (z-score),[4],-0.144
same,glycan array binding signal (z-score),GalNAc4S6S(b1-4)GlcNAc,-0.157
same,glycan array binding signal (z-score),GalNAc6S(b1-4)GlcNAc,-0.134
same,glycan array binding signal (z-score),Glc(a1-4)Glc,-0.134
same,glycan array binding signal (z-score),[5],-0.106
same,glycan array binding signal (z-score),Glc(a1-6)Glc(a1-6)Glc,-0.152
same,glycan array binding signal (z-score),[6],-0.126
same,glycan array binding signal (z-score),Glc(b1-4)Glc,-0.134
same,glycan array binding signal (z-score),Glc(b1-6)Glc,-0.138
same,glycan array binding signal (z-score),GlcA(b1-3)Gal,-0.161
same,glycan array binding signal (z-score),GlcA(b1-3)GlcNAc,-0.151
same,glycan array binding signal (z-score),GlcA(b1-6)Gal,-0.15
same,glycan array binding signal (z-score),[7],6.26
same,glycan array binding signal (z-score),[8],10.9
same,glycan array binding signal (z-score),[9],-0.136
same,glycan array binding signal (z-score),[10],-0.157
same,glycan array binding signal (z-score),[11],-0.152
same,glycan array binding signal (z-score),[12],-0.114
same,glycan array binding signal (z-score),[13],-0.161
same,glycan array binding signal (z-score),[14],-0.154
same,glycan array binding signal (z-score),[15],-0.146
same,glycan array binding signal (z-score),[16],-0.1
same,glycan array binding signal (z-score),[17],-0.133
same,glycan array binding signal (z-score),[18],-0.152
same,glycan array binding signal (z-score),[19],-0.144
same,glycan array binding signal (z-score),[20],-0.152
same,glycan array binding signal (z-score),[21],-0.151
same,glycan array binding signal (z-score),[22],-0.151
same,glycan array binding signal (z-score),[23],-0.141
same,glycan array binding signal (z-score),[24],-0.14
same,glycan array binding signal (z-score),[25],-0.12
same,glycan array binding signal (z-score),[26],-0.159
same,glycan array binding signal (z-score),[27],-0.159
same,glycan array binding signal (z-score),[28],-0.106
same,glycan array binding signal (z-score),[29],-0.163
same,glycan array binding signal (z-score),GlcNAc(b1-3)Fuc,-0.145
same,glycan array binding signal (z-score),GlcNAc(b1-3)Gal,-0.154
same,glycan array binding signal (z-score),[30],-0.139

# From the supplement of paper PMC8728848
